PubChem BioAssay AID1460 (National Center for Advancing Translational Sciences (NCATS), 2008)
About 5,800 (2.1%) of roughly 270,000 compounds were called active. This list was built around the results that the source calls inconclusive (neither active nor inactive); the mix of calls is not that of the screen. The call rests on the fitted dose curve; in most records, active means well fitted inhibition curve with a large enough effect; inconclusive means small, poorly fitted or top-dose-only effect; inactive means flat fitted curve, though single readings scatter. Potencies beside an inconclusive call are fits to weak or partial responses and may not hold up.

What follows are molecules tested against Microtubule-associated protein tau (Homo sapiens) (UniProt P10636) (assay: qHTS for Inhibitors of Tau Fibril Formation, Thioflavin T Binding). Conditions: recombinant tau K18 P301L, heparin-induced fibrillization, ThT fluorescence; series mostly up to 57.4 µM.
Method in brief: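 Fibril formation assay: tau K18 P301L at 15 uM with trace Alexa 594 label, heparin inducer 20 uM, pH 7 sodium acetate buffer, 37 C for 6 hr; endpoint ThT signal.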
Further: nearly all actives have a fitted effect of over 55% in size.
Potency means the concentration at half of the fitted maximal effect; tags describe the fitted curve by direction and shape.

UniProt P10636, sequence (P10636 whole entry, looked up): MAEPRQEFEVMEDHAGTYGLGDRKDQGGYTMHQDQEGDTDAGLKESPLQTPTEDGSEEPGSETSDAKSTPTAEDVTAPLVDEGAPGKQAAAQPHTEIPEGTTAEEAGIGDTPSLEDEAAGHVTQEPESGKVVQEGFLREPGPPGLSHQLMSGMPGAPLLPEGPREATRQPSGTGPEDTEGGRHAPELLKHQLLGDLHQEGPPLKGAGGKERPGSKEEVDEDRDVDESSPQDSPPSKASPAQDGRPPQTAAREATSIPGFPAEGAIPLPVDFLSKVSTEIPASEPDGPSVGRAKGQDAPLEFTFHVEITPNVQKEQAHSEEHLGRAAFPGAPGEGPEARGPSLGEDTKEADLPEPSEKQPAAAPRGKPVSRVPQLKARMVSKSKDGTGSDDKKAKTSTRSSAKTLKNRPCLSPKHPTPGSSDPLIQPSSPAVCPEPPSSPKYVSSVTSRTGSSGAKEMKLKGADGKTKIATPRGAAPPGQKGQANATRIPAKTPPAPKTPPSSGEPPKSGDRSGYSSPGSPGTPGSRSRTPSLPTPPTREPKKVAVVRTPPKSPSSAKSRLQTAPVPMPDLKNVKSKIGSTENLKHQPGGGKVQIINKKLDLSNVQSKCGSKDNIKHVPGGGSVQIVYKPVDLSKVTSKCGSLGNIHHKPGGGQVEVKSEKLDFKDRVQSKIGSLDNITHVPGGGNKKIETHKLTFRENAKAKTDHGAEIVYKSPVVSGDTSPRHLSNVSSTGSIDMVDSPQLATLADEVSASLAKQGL

SMILES | Potency
CC1(C)CC2(C)OC(=N)C1(C#N)C2(C#N)C#N (stereo not given) | inconclusive: 14.1 µM [inhibitor, partial curve]
O=C1NC(=O)/C(=C/c2ccc(N3CCOCC3)o2)N1 | inconclusive: 31.6 µM [inhibitor, partial curve]
CCC(=O)N(CCC(c1ccccc1)c1ccc2c(c1)OCO2)Cc1ccc(OC(C)C)cc1 (stereo not given) | inconclusive: 14.1 µM [inhibitor, partial curve, poor fit]
CCOC(=O)c1c(NC(=O)c2ccc(S(=O)(=O)N(CC(C)C)CC(C)C)cc2)sc2c1CCN(C(=O)OCC)C2 | inactive
Cc1cc(C)cc(NS(=O)(=O)c2cc3c(cc2C)NC(=O)CO3)c1 | inactive
CCOc1cc(/C=N\NC(=O)c2ccc(C)nc2)cc([N+](=O)[O-])c1O | inconclusive: 15.8 µM [inhibitor, partial curve]
CCCNC(=S)Nc1ccc2nc(-c3ccccn3)c(-c3ccccn3)nc2c1 | inactive
O=C(CSc1nnc(-c2ccc(C(F)(F)F)cn2)s1)c1ccc(Cl)cc1 | inconclusive: 0.631 µM [inhibitor, full curve, poor fit]
O=c1nc2n(-c3ccccc3F)c3ccccc3cc-2c(=O)[nH]1 | inconclusive: 22.4 µM [inhibitor, single point]
COc1ccc(C(=O)CSc2ccc(-c3ccco3)nn2)cc1 | inconclusive: 12.6 µM [inhibitor, partial curve]
CC[C@@]12CCCN3CCc4c(n(c5ccccc45)[C@](O)(C(=O)OC)C1)[C@H]32 | inactive
O=[N+]([O-])c1ccc(-c2nc3ccc([N+](=O)[O-])cc3[nH]2)cc1 | active: 2.82 µM
Cc1csc(SCc2nnc(-c3ccccc3Br)o2)n1 | inconclusive: 0.708 µM [inhibitor, full curve]
Cc1c(NC(=O)c2cc(-c3ccco3)on2)c(=O)n(-c2ccccc2)n1C | inactive
CC(C)(C)OC(=O)NCc1ccc(NC(=O)c2nc[nH]c2C(=O)N[C@@H](Cc2ccccc2)C(=O)OC(C)(C)C)cc1 | inconclusive: 11.2 µM [activator, partial curve]
CCCCN(CCCNC(=O)c1cc(Nc2ccc(OC)c(OC)c2)nc2ccccc12)Cc1ccccc1 | inconclusive: 12.6 µM [inhibitor, partial curve]
CCSC1=NC(C)(C)C=C(/C=C/c2ccc(Cl)cc2Cl)N1 | inconclusive: 25.1 µM [inhibitor, single point]
Cc1ccccc1N1C(S)=C(C#N)C(=O)NC1c1cccs1 (stereo not given) | inconclusive: 35.5 µM [inhibitor, single point]
CCCCn1c(=O)[nH]c(=O)c2c1nc(-c1ccc(-c3ccccc3Br)o1)n2CCOC | inconclusive: 10 µM [inhibitor, partial curve, poor fit]
Cc1ccc(OCC(=O)Nc2ccc3c(c2)OCO3)cc1C | inconclusive: 17.8 µM [inhibitor, partial curve]
O=C(/C=C/c1cccc(F)c1)N1CCN(c2ccccn2)CC1 | inactive
CCOc1cc2c(cc1C=O)OC(C)C2 (stereo not given) | inactive
CCN1C(=O)/C(=C\C(=O)c2cccs2)c2cc(Br)ccc21 | inconclusive: 39.8 µM [inhibitor, single point]
CCN(CC)C(=O)Cn1c(=O)n(Cc2ccc(C(=O)NCCc3ccc(OC)c(OC)c3)cc2)c(=O)c2ccccc21 | inactive

SMILES | Potency
COC(=O)c1c(NC(=O)CCCOc2cccc(C)c2)sc2c1C(C(=O)OC)CC2 (stereo not given) | active: 3.16 µM
C/C(=N\NC(=O)CNc1ccc(F)cc1)c1cc2ccccc2o1 | inconclusive: 20 µM [inhibitor, partial curve]
CCCOC1(C(F)(F)F)NC(=O)N(c2ccc(Cl)cc2)C1=O (stereo not given) | inactive
Cc1cc(C)c(NC(=O)CSc2nc(=O)[nH]c3c2CCCC3)c(C)c1 | inactive
COc1cc(/C=C/C(=O)c2cccs2)cc(OC)c1OC | inconclusive: 10 µM [inhibitor, partial curve]
COc1cc(-c2cc(C(=O)Nc3ccc(S(=O)(=O)Nc4ncccn4)cc3)c3ccccc3n2)cc(OC)c1OC | inactive
COc1ccc(NC(=O)c2noc3c2CCCC3)cc1Cl | inconclusive: 1 µM [inhibitor, single point]
COc1cccc(NC(=O)Nc2cccc(-c3cn4cccnc4n3)c2)c1 | inconclusive: 5.01 µM [inhibitor, partial curve]
CC1CCC2(CC1)NC(=O)N(CC(=O)Nc1sc3c(c1C(N)=O)CCC3)C2=O (stereo not given) | inconclusive: 25.1 µM [inhibitor, partial curve]
COc1cccc(C(=O)Nc2ccc(N3CCCC3)cc2)c1 | active: 14.1 µM
CC(=O)N1CCc2cc(S(=O)(=O)CCC(=O)N3CCN(c4cccc(C)c4C)CC3)ccc21 | inconclusive: 44.7 µM [inhibitor, single point]
COc1ccc2cc3cc(C(=O)Nc4ccc5c(c4)OCO5)oc3nc2c1 | inconclusive: 1.58 µM [inhibitor, full curve]
Cc1cccc2cc(C#N)c(SCC(=O)N3CC(=O)Nc4ccccc43)nc12 | inconclusive: 25.1 µM [inhibitor, partial curve]
CCC[C@@H]1C[C@@]1(CCC)C(NP(=O)(c1ccccc1)c1ccccc1)c1ccc(Cl)cc1 (stereo not given in full) | inconclusive: 44.7 µM [inhibitor, single point]
Cc1ccc(Nc2ccc(C(N)=O)cc2[N+](=O)[O-])cc1 | inactive
COc1ccc(C(=O)/C=C/c2ccc(OC3CSC3)cc2)cc1OC | inconclusive: 7.08 µM [inhibitor, single point]
O=C(Cn1nnc2ccccc21)c1ccc(Cl)cc1 | inactive
Cc1cc(Cl)ccc1OCc1n[nH]c(=S)n1C1CCCCC1 | inconclusive: 44.7 µM [inhibitor, single point]
CC(C)(C)C(=O)Oc1ccc2cc(-c3ccc4ccccc4n3)c(=O)oc2c1 | inconclusive: 10 µM [inhibitor, partial curve]
Cc1ccc(-c2c(CN3CCN(c4cccc(C(F)(F)F)c4)CC3)csc2C)cc1 | inactive
Cc1sc2ncnc(N(C)Cc3ccco3)c2c1C | inconclusive: 44.7 µM [inhibitor, partial curve, poor fit]
c1ccc2c(CSc3nnc(-c4ccncc4)o3)cccc2c1 | inconclusive: 25.1 µM [inhibitor, partial curve]
COc1ccccc1NC(=O)c1c(NCc2ccc(OC)c(OC)c2OC)sc2c1CCCC2 | inconclusive: 12.6 µM [inhibitor, partial curve]
COc1ccc(Nc2ncnc3sc(-c4ccccc4)cc23)c(OC)c1 | inconclusive: 20 µM [inhibitor, partial curve]

SMILES | Potency
COC(=O)C1=C(C)N(C)C(=O)/C1=C\c1ccco1 | inconclusive: 25.1 µM [inhibitor, partial curve]
COc1ccc(C2NC(=S)NC3=C2N2CCC3CC2)cc1 (stereo not given) | inactive
Cc1cc2ccccn2c1C(=O)c1cccc([N+](=O)[O-])c1 | inconclusive: 25.1 µM [inhibitor, single point]
CN1C(C(=O)c2ccccc2)=C(OC(=O)c2ccc(Br)cc2)c2ccccc2S1(=O)=O | inconclusive: 10 µM [inhibitor, partial curve]
C[N+]1(C)CCc2cc3c(cc2[C@@H]1[C@@H]1C(=O)Oc2c1ccc1c2OCO1)OCO3 | inactive
Cc1ccc(CSCC(=O)N2CCN(c3ccccc3)CC2)cc1 | inconclusive: 39.8 µM [inhibitor, single point]
C=CCn1c(N2CCN(c3ccc(OC)cc3)CC2)nc2c1c(=O)[nH]c(=O)n2C | inactive
Cc1cc(C2=NNC(=NC3CCCCC3)SC2)c(C)n1-c1c(C)n(C)n(-c2ccccc2)c1=O | inactive
O=C(NCCc1ccc2c(c1)OCCO2)c1cc2ccccc2o1 | inconclusive: 14.1 µM [inhibitor, partial curve]
COc1ccc(-c2cc(C(=O)Nc3cccnc3Cl)no2)cc1OC | inconclusive: 1.12 µM [inhibitor, full curve]
Cc1ccc2onc(CNC(=O)N3CCN(c4cccc(C)c4C)CC3)c2c1 | inconclusive: 12.6 µM [inhibitor, partial curve]
COC(=O)C1Cc2c([nH]c3ccccc23)CN1 (stereo not given) | inconclusive: 35.5 µM [inhibitor, partial curve]
CCCOc1ccc(Oc2nc(-c3ccncc3)nc3ccccc23)cc1 | inconclusive: 39.8 µM [inhibitor, single point]
NCCC[C@@H](N)C(=O)O | inactive
CC1(c2ccc(Cl)c(Cl)c2)NC(=S)N2C1NC(=S)N2c1ccccc1 (stereo not given) | inconclusive: 15.8 µM [inhibitor, partial curve]
CCOC(=O)c1ccc(N2C(=O)C(CC(N)=O)N(CCc3ccc(OC)c(OC)c3)C2=S)cc1 (stereo not given) | inconclusive: 39.8 µM [inhibitor, single point]
Cc1ccc(C)c(CN2C(=O)C(=O)c3ccccc32)c1 | inactive
O=S(=O)(Nc1ccc2nc(-c3ccc(Br)o3)[nH]c2c1)c1ccccc1 | inactive
CCOC(=O)Nc1ccc(NCc2ccc(F)cc2)nc1N | active: 17.8 µM
CCC(C)(C(=O)NC1CCCCC1)N(C)C(=O)c1ccccn1 (stereo not given) | inactive
CCOc1ccc(-c2nc(SCC(=O)Nc3ccc4c(c3)OCO4)c(-c3ccc(F)cc3)[nH]2)cc1 | inconclusive: 14.1 µM [inhibitor, single point]
COc1ccc(NC(=O)Nc2cc(C)ccc2OC)cc1 | inconclusive: 31.6 µM [inhibitor, single point]
